Data reported in the supplement of paper PMC4604168 (melanoma cell lines).
Some of the results follow. Single values are uncertain, as repeats are few or missing.

What was measured:
Test in all cases: cell count relative to DMSO control; melanoma cells; higher = more viable cells
Conditions in all cases: library dose: low library concentration; 72 h
MZ2-MEL = test system: MZ2-MEL
MeWo = test system: MeWo
RPMI7951 = test system: RPMI7951
RVH-421 = test system: RVH-421
SkMel28 = test system: SkMel28
SkMel30 = test system: SkMel30
SkMel5 = test system: SkMel5
UACC257 = test system: UACC257
UACC62 = test system: UACC62
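Also: cell number obtained by counting DAPI-stained nuclei in high-throughput microscope images with image analysis software, screen run in 1,536-well plates.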

Compound	cell count (MZ2-MEL)	cell count (MeWo)	cell count (RPMI7951)	cell count (RVH-421)	cell count (SkMel28)	cell count (SkMel30)	cell count (SkMel5)	cell count (UACC257)	cell count (UACC62)
COc1cc(Nc2ncc(F)c(Nc3ccc4c(n3)NC(=O)C(C)(C)O4)n2)cc(OC)c1OC [Tamatinib] + O=C(Nc1ccccc1)c1cc([N+](=O)[O-])ccc1Cl [GW9662] (first compound 0.4 µM, partner dose 2 µM)	86.5%	96.5%	98.8%	99.3%	77.6%	76.7%	84.1%	76%	90.2%
C[C@@H]1CCN(C(=O)CC#N)C[C@@H]1N(C)c1ncnc2[nH]ccc12 + O=C(Nc1ccccc1)c1cc([N+](=O)[O-])ccc1Cl [GW9662] (first compound 1 µM, partner dose 2 µM)	91%	102%	102%	109%	95.7%	97.9%	95.9%	93%	102%
Cn1cncc1[C@@](N)(c1ccc(Cl)cc1)c1ccc2c(c1)c(-c1cccc(Cl)c1)cc(=O)n2C [tipifarnib] + COC(=O)c1sccc1S(=O)(=O)Nc1ccc(Nc2ccccc2)cc1OC [GSK0660] (first compound 0.01 µM, partner dose 1 µM)	98%	95.2%	74.5%	85%	84.9%	104%	88.8%	69.5%	69.2%
CC1(C)NC(=O)N(c2ccc([N+](=O)[O-])c(C(F)(F)F)c2)C1=O [nilutamide] + COc1cc(N2CCC(N3CCN(C)CC3)CC2)ccc1Nc1ncc(Cl)c(Nc2ccccc2S(=O)(=O)C(C)C)n1 [NVP-TAE684] (first compound 1 µM, partner dose 0.08 µM)	103%	92.2%	105%	93.8%	103%	72.4%	82.5%	83.4%	91.7%
O=C(Nc1cccc(Cl)c1)Nc1ncc(CCNc2ncnc3ccsc23)s1 + Cn1cc(/C=C2\C(=O)Nc3cccnc32)c2ccccc21 [GW441756] (first compound 0.0008 µM, partner dose 0.4 µM)	100%	97.6%	116%	111%	87.1%	122%	78.8%	109%	93.8%
Cn1cncc1[C@@](N)(c1ccc(Cl)cc1)c1ccc2c(c1)c(-c1cccc(Cl)c1)cc(=O)n2C [tipifarnib] + COc1cc2ncnc(Nc3ccc(Oc4ccccc4)cc3)c2cc1OC [SrcI1] (first compound 0.01 µM, partner dose 2 µM)	94.2%	88.5%	98.7%	99.8%	84.1%	94.2%	97%	74.6%	68.1%
Cn1cncc1[C@@](N)(c1ccc(Cl)cc1)c1ccc2c(c1)c(-c1cccc(Cl)c1)cc(=O)n2C [tipifarnib] + COc1ccc2c(c1)CCC1C2CCC2(C)C(NCCCCCCN3C(=O)C=CC3=O)CCC12 [U73122] (first compound 0.01 µM, partner dose 0.4 µM)	99.7%	76.6%	69.7%	109%	86.2%	91%	99.8%	97.2%	90.5%
Cn1cncc1[C@@](N)(c1ccc(Cl)cc1)c1ccc2c(c1)c(-c1cccc(Cl)c1)cc(=O)n2C [tipifarnib] + CCCCCCCCCCCC1=C(O)C(=O)C=C(O)C1=O [Embelin] (first compound 0.01 µM, partner dose 1.2 µM)	98.3%	111%	96.8%	74.8%	90.3%	85.7%	106%	99.1%	77.6%
C[C@@H]1CCN(C(=O)CC#N)C[C@@H]1N(C)c1ncnc2[nH]ccc12 + COc1cc(N2CCC(N3CCN(C)CC3)CC2)ccc1Nc1ncc(Cl)c(Nc2ccccc2S(=O)(=O)C(C)C)n1 [NVP-TAE684] (first compound 1 µM, partner dose 0.08 µM)	103%	93%	90.5%	106%	105%	83.2%	81.7%	90.6%	93.3%
O=C(Nc1cccc(Cl)c1)Nc1ncc(CCNc2ncnc3ccsc23)s1 + O=C1NC(=O)/C(=C/c2ccc(-c3ccc(F)cc3O)o2)S1 [AS252424] (first compound 0.0008 µM, partner dose 1 µM)	104%	101%	102%	104%	78.4%	113%	107%	98.9%	97.5%
O=C(O)c1ccc(-c2c[nH]c3ncc(-c4ccccc4)cc23)cc1C1CCCC1 + Oc1cc(-c2nc(-c3ccccc3)[nH]c2-c2ccncc2)ccc1Cl [L779450] (first compound 0.16 µM, partner dose 0.2 µM)	78.8%	100%	94.7%	71.8%	60.4%	93%	91.8%	84.6%	65.9%
COc1cc(Nc2ncc(F)c(Nc3ccc4c(n3)NC(=O)C(C)(C)O4)n2)cc(OC)c1OC [Tamatinib] + COC(=O)c1sccc1S(=O)(=O)Nc1ccc(Nc2ccccc2)cc1OC [GSK0660] (first compound 0.4 µM, partner dose 1 µM)	89.5%	90%	75.7%	102%	87.6%	87.9%	86.5%	65.7%	73.7%
COc1cc(Nc2ncc(F)c(Nc3ccc4c(n3)NC(=O)C(C)(C)O4)n2)cc(OC)c1OC [Tamatinib] + N#Cc1c(O)c2c(-c3ccc(-c4ccccc4O)cc3)csc2[nH]c1=O [A769662] (first compound 0.4 µM, partner dose 2 µM)	92.5%	88.9%	98.4%	84.4%	85.2%	85.1%	97.7%	76.7%	84.2%
O=C(O)c1ccc(-c2c[nH]c3ncc(-c4ccccc4)cc23)cc1C1CCCC1 + COc1cc2ncnc(Nc3ccc(Oc4ccccc4)cc3)c2cc1OC [SrcI1] (first compound 0.16 µM, partner dose 2 µM)	89.6%	88.8%	110%	123%	86.2%	113%	98.7%	99.9%	84.3%
O=C(Nc1cccc(Cl)c1)Nc1ncc(CCNc2ncnc3ccsc23)s1 + CCN(CC)CCCCNc1ncc2cc(-c3cc(OC)cc(OC)c3)c(NC(=O)NC(C)(C)C)nc2n1 [PD173074] (first compound 0.0008 µM, partner dose 0.1 µM)	99.1%	103%	83.9%	89.9%	93.9%	90.7%	114%	91.7%	104%
Cn1cncc1[C@@](N)(c1ccc(Cl)cc1)c1ccc2c(c1)c(-c1cccc(Cl)c1)cc(=O)n2C [tipifarnib] + c1cc(-c2cnn3cc(-c4ccc(OCCN5CCCCC5)cc4)cnc23)ccn1 [Dorsomorphin] (first compound 0.01 µM, partner dose 0.4 µM)	104%	98.1%	82.5%	107%	77.4%	101%	85.1%	76.5%	86.3%
O=C(O)c1ccc(-c2c[nH]c3ncc(-c4ccccc4)cc23)cc1C1CCCC1 + COc1cc(N2CCC(N3CCN(C)CC3)CC2)ccc1Nc1ncc(Cl)c(Nc2ccccc2S(=O)(=O)C(C)C)n1 [NVP-TAE684] (first compound 0.16 µM, partner dose 0.08 µM)	87.8%	83%	81.6%	117%	87.9%	103%	82%	84.6%	78%
CC1(C)NC(=O)N(c2ccc([N+](=O)[O-])c(C(F)(F)F)c2)C1=O [nilutamide] + O=c1cc(-c2cccc3c2Sc2ccccc2S3)oc(N2CCOCC2)c1 [KU55933] (first compound 1 µM, partner dose 1 µM)	98.5%	92.2%	104%	123%	107%	123%	103%	103%	107%
CC1(C)NC(=O)N(c2ccc([N+](=O)[O-])c(C(F)(F)F)c2)C1=O [nilutamide] + CC(C)CCN1c2nc(Nc3cc(F)c(O)c(F)c3)ncc2N(C)C(=O)C1C [BID1870] (first compound 1 µM, partner dose 0.2 µM)	101%	93.8%	99.9%	114%	89.4%	89%	112%	105%	69.7%
Cn1cncc1[C@@](N)(c1ccc(Cl)cc1)c1ccc2c(c1)c(-c1cccc(Cl)c1)cc(=O)n2C [tipifarnib] + CCc1ccc(CCOc2ccc(CC3SC(=O)NC3=O)cc2)nc1 [pioglitazone] (first compound 0.01 µM, partner dose 2 µM)	95.2%	94.3%	87.7%	89%	78.3%	104%	88.5%	81.4%	75.9%
Cn1cncc1[C@@](N)(c1ccc(Cl)cc1)c1ccc2c(c1)c(-c1cccc(Cl)c1)cc(=O)n2C [tipifarnib] + COc1ccc(COc2ccc(Cc3cnc(N)nc3N)cc2OC)cc1 [GW2580] (first compound 0.01 µM, partner dose 1 µM)	95%	92.8%	87%	80.1%	88.7%	80.1%	102%	85.6%	73.3%
O=C(O)c1ccc(-c2c[nH]c3ncc(-c4ccccc4)cc23)cc1C1CCCC1 + Cc1cc([N+](=O)[O-])ccc1NS(=O)(=O)c1cc(Cl)ccc1Cl [FH535] (first compound 0.16 µM, partner dose 1 µM)	89.5%	90.6%	108%	72.9%	79.4%	70.4%	89.2%	93.1%	85.5%
O=C(Nc1cccc(Cl)c1)Nc1ncc(CCNc2ncnc3ccsc23)s1 + COc1cc2ncnc(Nc3ccc(Oc4ccccc4)cc3)c2cc1OC [SrcI1] (first compound 0.0008 µM, partner dose 2 µM)	87.5%	93.6%	72.2%	98.6%	80.7%	95.5%	101%	103%	95.6%
